This is an account of results in the supplement of paper PMC11417369.

The list shows a part of the results.

For the assay, the system named is PfSIP2 AP2 domain 1 (GST-tagged). Put plainly: gcPBM binding intensity (ln(normalized median fluorescence intensity)); higher = stronger DNA binding. In a few lines: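 GST-fused DNA-binding domains of P. falciparum, expressed in E. coli, were applied at about 25 μg on average for 1 h to an Agilent 4 × 180k array of primer-extended double-stranded 36-bp intergenic genomic probes and negative controls. Binding intensity is the highest Masliner-normalised natural-log median intensity across replicate spots of either probe orientation, measured with Alexa488 anti-GST antibody and a 488 nm scan.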
As to “TATAAAAGGTAAGAGTGTACAAGTAAAAAATTTTTA [XGTACX_site771]”, the “gcPBM binding intensity (ln)” value turned out to be 6.8. Regarding “AATAAAAATTGGTAGGCACACATGGAACTATTAAAA [CACACA_site1257]”, the “gcPBM binding intensity (ln)” value is 6.97. Take “ATGAACTATATTAAATCACACATTATCATTTTATAT [CACACA_site4989]”: the “gcPBM binding intensity (ln)” value was 7.12. Consider “TATCCCTTAGAATACACACCCATATGAGCGTGAACT [CACACA_site2951]”, for which the “gcPBM binding intensity (ln)” value was found to be 6.95. The same measure for “TCGTATATGGATTTTGCACACAATTATAATTTAAAT [CACACA_site868]”: 7.64; for “TATATATTTTAAAATAGTACATATTATATAACCCAT [XGTACX_site2194]”: 7.23. The same measure for “ATATATATATATATATGTACACATTAATGTTTTTTT [XGTACX_site167]”: 10; for “TTATTTTTTATTATGTGTACATAACATCGCGATACA [XGTACX_site4359]”: 7.13; for “AAAACTTGTCAGAATGGACACACGAATTAAAGGCCT [CACACA_site1215]”: 6.51. For “CAACATTCGTATATCACACATTTGCATGTTGTCAAT [CACACA_site4470]” the value was 6.83. For “GATTTAGTTATTTAAACATGCAATTTATATAGAATT [TGCATGCA_site47]”, the “gcPBM binding intensity (ln)” value was found to be 7.06. As for “TATTTATACATACATACACACATATAGATTTATATT [CACACA_site7851]”, the “gcPBM binding intensity (ln)” value came out at 7.09. For “TATGTCAAATATATATGTACACAAATATACTATTAA [XGTACX_site2643]” the value was 7.08; for AATATATATATTAGAGTGCACATAATTATTTGCTAA, 10. The same measure for “ATAATCACAAATAATTGTACATTTTGTTATATATAT [XGTACX_site7704]”: 7.5; for “TGATATATATATATATATATAACACACGCAAAAAAA [TGCATGCA_negctrl_site240]”: 7.51; for “AAAAATTTCATATTCACACACAAAAAAAAAAAATAT [CACACA_site1592]”: 7. Turning to TTTTTAATTTATTGTGTGCACACAACTATGAGTTTT, the “gcPBM binding intensity (ln)” value came to 8.08. For the sequence “ATATGATATATATTCGGTACACATATATATAAAGAG [XGTACX_site430]”, the “gcPBM binding intensity (ln)” value is 7.38. For “ATTTAAATAATATTCACACACAAAATTATATTTTAA [CACACA_site219]” the value was 6.99. Consider “AAGTTTTCTTAAAATTGTACTTTTCAAAAATAATCT [XGTACX_site277]”, for which the “gcPBM binding intensity (ln)” value was 6.65. Turning to “ATTATTATATATGTATGTACTTATATAATATATATA [XGTACX_site5198]”, the “gcPBM binding intensity (ln)” value amounted to 7.5. The same measure for “TATATATTGTTATATACACACATGTATTTAAAAAAT [CACACA_site5737]”: 6.91. The same measure for “TTAACAAAACATAAGGTGCTTAAAATTTTATATCAC [GTGCAC_site9839]”: 7.96; for “TCTGTTAAACAAAAAAGTACTAAAATAATGTAAAAT [XGTACX_site6826]”: 7.19. For “TACCTATATAGACACACACACATATATTTATTTATA [CACACA_site6728]” the value was 7.27. With “ATATGTACAAGTGTTTATGCTGAACGGAAATCCTGT [CACACA_negctrl_site1372]”, the “gcPBM binding intensity (ln)” value was determined as 6.9.

Regarding TTATATGGATATACAGTGCATATATACATATAAGTG, the “gcPBM binding intensity (ln)” value is 8.77. The same measure for “AATATATATACTATAACACACATACACCCAAAAAAA [CACACA_site4453]”: 7.15. With “CATACCTTTTAATGTACACACATTTCTTTTTTGTTA [CACACA_site892]”, the “gcPBM binding intensity (ln)” value stood at 7.23. For “AAAAAAAAAAGAAACACACACATATATATATAGAAT [CACACA_site1777]” the value was 7.03; for “ATGTATTAAAATTTATGTACTTATATATAAATATAT [XGTACX_site1025]”, 7.14; for “TATATGTATTTGTATACACACAAATGTATATATTTA [CACACA_site1265]”, 6.78.

Regarding “TATAAACATAATATTTAACACACATGAAGATGTATA [CACACA_site8252]”, the “gcPBM binding intensity (ln)” value is 6.9.

Consider “TACATATATTATACATGTACACATTTATACATATCG [XGTACX_site2866]”, for which the “gcPBM binding intensity (ln)” value came out at 7.18. The same measure for “ATATGATCATACTGTGCATGTTAATGCAAATTTTAT [TGCATGCA_site984]”: 7.44. For “TTTTTTTTTATATAAAAAAAAATTTTTATTATTTTA [GTGCAC_negctrl_site347]” the value was 6.5. On to “CGCACAGACGGACACACACACACATATATATATATA [CACACA_site5249]”, for which the “gcPBM binding intensity (ln)” value was determined as 9.48.

“ATAATTGTCCATTTTTTCTTTTTTTTTTTCTTTTTA [CACACA_negctrl_site928]”: the “gcPBM binding intensity (ln)” value is 6.65. Take TTCTCCTAATAGTTAGTGCACTACATAACTAAGAAA: the “gcPBM binding intensity (ln)” value was 10.8. For “AAAAAAAAAAAAAAAACACACATTTAGCAATCTACA [CACACA_site3706]”, the “gcPBM binding intensity (ln)” value amounted to 7.71. On to “ATGATACTAAAAAATTGTACATATAACAAAAGGTAT [XGTACX_site2527]”, for which the “gcPBM binding intensity (ln)” value amounted to 7.14.

Turning to “CATATATTTTGAAACACACACATATATAATATACAT [CACACA_site1158]”, the “gcPBM binding intensity (ln)” value is 7.16.

On to “TTTGTATAATACATGTGTACGTATTTTTATATAAAT [XGTACX_site8656]”, for which the “gcPBM binding intensity (ln)” value is 7.33. For “TTATCATTATATAGTTGTACATATTTATTTATAAAA [XGTACX_site2310]” the value was 7.26. The same measure for “AGAACTAAAAGAACATGTACATAAATTCTAAATAAT [XGTACX_site4084]”: 6.9; for “TATTTTGTTTTAAAAGTACACACTTTTAATTAGATT [CACACA_site1180]”: 7.48.

Regarding “ATAACAAAATGAAGAGTGCATTACCAAGTGGGTAAA [GTGCAC_site9450]”, the “gcPBM binding intensity (ln)” value was 8.64. “ATATTTAAGGCGTGTATGCACACGACTATTCCGTAT [CACACA_site1080]”: the “gcPBM binding intensity (ln)” value worked out at 6.96. Regarding “TTAATTTGTTCTTACACACACATATAAATATATTTA [CACACA_site6676]”, the “gcPBM binding intensity (ln)” value stood at 7.11.

On to “ATAAACATGGAAATGTATTAAAAGCAAGTATATAAA [XGTACX_negctrl_site516]”, for which the “gcPBM binding intensity (ln)” value is 7.03. Consider “TGTTGTTACAGATATACACACATATATATATTATAT [CACACA_site5342]”, for which the “gcPBM binding intensity (ln)” value is 7.26. Take “TTGGGTGCATATATTTGTACACATTATTTCTATTTT [XGTACX_site3688]”: the “gcPBM binding intensity (ln)” value is 12. The same measure for “TAAATTATAACGTGCACACATATTTAAAATGAAATG [CACACA_site2820]”: 10.3. For the sequence “AAAAAAAATTTCTTCACACATAAATAAATAAATAAA [CACACA_site4841]”, the “gcPBM binding intensity (ln)” value came out at 7.01. The same measure for “TGCATTTATATCTTCACACATATATATATATATATA [CACACA_site4516]”: 9.14; for “ATTAAAAATTCAATTGCACACGCACATATTTTAATA [CACACA_site8618]”: 7.04; for “ATGTAATAAAATAATTGTACAATGTAACTAATTTTT [XGTACX_site2871]”: 6.95. For “ATATGTATATATACATGTACATATTTTTCCTTTCTT [XGTACX_site149]” the value was 6.94. For “ACATAAATAAATTAATGTACATATATATTTGTATAT [XGTACX_site3160]” the value was 7.1.

For “TATATATATATATATACACACACACCCATATATATA [CACACA_site8812]”, the “gcPBM binding intensity (ln)” value came out at 9.59. As for “TTTTTTTTTTTTTCAAGTACATATATATATATATAA [XGTACX_site2098]”, the “gcPBM binding intensity (ln)” value was found to be 7.58.

Consider “TTTTTATATGTTAAGTGTACGTTTACATTTTATACT [XGTACX_site3485]”, for which the “gcPBM binding intensity (ln)” value stood at 7.06. The same measure for “TATACATACATTAGACGTACACATTTTACCTACACC [XGTACX_site3586]”: 7.86. For “TTTTTTGTATTTTTCACACACACATAAGTAAACAAT [CACACA_site1900]” the value was 7.25; for “TATTATGTATGTATATGTACGTATCTTATTTTATTT [XGTACX_site5008]”, 6.99; for “AAATTATTATATATATGTACGTATAATGTATTTTGT [XGTACX_site2903]”, 7.08. On to AAATATAGAATACATGTGCACATAATATATATATAT, for which the “gcPBM binding intensity (ln)” value came out at 9.21. For the sequence “AATACAATTTATAACACACACACAAGAATACCTATA [CACACA_site6705]”, the “gcPBM binding intensity (ln)” value was found to be 7.02.

On to “TCTTTTTAAGGGATTTTTTTTTTTTTTTTAAAAAGA [CACACA_negctrl_site1274]”, for which the “gcPBM binding intensity (ln)” value is 6.65.

For “TTTGTATCTATATATTGTACGAATTACTTTCATTTA [XGTACX_site4785]”, the “gcPBM binding intensity (ln)” value was 6.8. Take “AAATGTAAATTTATCCGTACATATATATATTTATAT [XGTACX_site7024]”: the “gcPBM binding intensity (ln)” value worked out at 7.01. Take “AAAAAAAAAAAAATATATATATATATATATATATAT [GTGCAC_negctrl_site212]”: the “gcPBM binding intensity (ln)” value came to 9.48.

Take “AAAAAAAAAAATTAAAGTACAAAAATATTAAAAATA [XGTACX_site6517]”: the “gcPBM binding intensity (ln)” value stood at 6.8.

Take “ATTTTTTTTATGTATTATGCTTTTATATCCTTCATA [CACACA_negctrl_site1244]”: the “gcPBM binding intensity (ln)” value came out at 7.19. For “ATTTCTTTTACATTTACATGCAATGCTCTATAGATA [TGCATGCA_site62]” the value was 7.34. Take “AAAGAATTTGCATATACACACAAAAAAATAAATACA [CACACA_site4373]”: the “gcPBM binding intensity (ln)” value was determined as 7.03. The same measure for “ATATATATATACATATGTACATATATATTTATACAT [XGTACX_site2463]”: 8.45; for “TACACAGACGGACACACACACACACTAGAAAAAAAA [CACACA_site4435]”: 7.34. For the sequence “AATATAATATAATGCACACATAAAAAAAAAAAAATC [CACACA_site1303]”, the “gcPBM binding intensity (ln)” value was 7.43.

As to “AATGCACTATTTAAAAGTACACATAAGAAAAGCATA [XGTACX_site1739]”, the “gcPBM binding intensity (ln)” value stood at 8.82. The same measure for “GCTAAACAATAGTTTGCACACAATTTAAATATATAT [CACACA_site193]”: 7.15; for “AGTATAAATATATTATGTACATATATATTATACTTA [XGTACX_site2623]”: 6.98. For “TTATATACATTAAATGAACACACATAAATAAATTAC [CACACA_site8927]”, the “gcPBM binding intensity (ln)” value is 6.97. The same measure for “AAAAAAAAAAAAAACACACACACACGCAGATATATA [CACACA_site6672]”: 7.49; for “TTTATTCTCCACACCCGTACACATTTTTTTTGCATA [XGTACX_site5615]”: 7.39; for “ATTATAGACAACTCTTTTTCTAAACTATTTTATTTT [CACACA_negctrl_site1754]”: 6.97. The same measure for “CATAATATTTGTGAAAGTACTTATTTTACAATAGGG [XGTACX_site5004]”: 6.91; for “TTTCTTAAAATATAAAGTACTAAAATGAAAATATAT [XGTACX_site2173]”: 7.13. With “AAATAAAGAAATATATGTACATATATATATATATAT [XGTACX_site5131]”, the “gcPBM binding intensity (ln)” value came out at 9.76.
